Measured values: article PMC4336329 (PLoS ONE, 2015)
About 2,200 (0.71%) of roughly 310,000 compounds showed an effect of 50% or more. Effects have a minus sign here. The list shows a part of the results.

These molecules were tested against human ether-à-go-go-related gene (hERG) potassium channel (human, UniProt Q12809) (assay: primary screen, population patch clamp on CHO cells stably expressing hERG).
Chain of human ether-à-go-go-related gene (hERG) potassium channel (Q12809 whole entry, looked up): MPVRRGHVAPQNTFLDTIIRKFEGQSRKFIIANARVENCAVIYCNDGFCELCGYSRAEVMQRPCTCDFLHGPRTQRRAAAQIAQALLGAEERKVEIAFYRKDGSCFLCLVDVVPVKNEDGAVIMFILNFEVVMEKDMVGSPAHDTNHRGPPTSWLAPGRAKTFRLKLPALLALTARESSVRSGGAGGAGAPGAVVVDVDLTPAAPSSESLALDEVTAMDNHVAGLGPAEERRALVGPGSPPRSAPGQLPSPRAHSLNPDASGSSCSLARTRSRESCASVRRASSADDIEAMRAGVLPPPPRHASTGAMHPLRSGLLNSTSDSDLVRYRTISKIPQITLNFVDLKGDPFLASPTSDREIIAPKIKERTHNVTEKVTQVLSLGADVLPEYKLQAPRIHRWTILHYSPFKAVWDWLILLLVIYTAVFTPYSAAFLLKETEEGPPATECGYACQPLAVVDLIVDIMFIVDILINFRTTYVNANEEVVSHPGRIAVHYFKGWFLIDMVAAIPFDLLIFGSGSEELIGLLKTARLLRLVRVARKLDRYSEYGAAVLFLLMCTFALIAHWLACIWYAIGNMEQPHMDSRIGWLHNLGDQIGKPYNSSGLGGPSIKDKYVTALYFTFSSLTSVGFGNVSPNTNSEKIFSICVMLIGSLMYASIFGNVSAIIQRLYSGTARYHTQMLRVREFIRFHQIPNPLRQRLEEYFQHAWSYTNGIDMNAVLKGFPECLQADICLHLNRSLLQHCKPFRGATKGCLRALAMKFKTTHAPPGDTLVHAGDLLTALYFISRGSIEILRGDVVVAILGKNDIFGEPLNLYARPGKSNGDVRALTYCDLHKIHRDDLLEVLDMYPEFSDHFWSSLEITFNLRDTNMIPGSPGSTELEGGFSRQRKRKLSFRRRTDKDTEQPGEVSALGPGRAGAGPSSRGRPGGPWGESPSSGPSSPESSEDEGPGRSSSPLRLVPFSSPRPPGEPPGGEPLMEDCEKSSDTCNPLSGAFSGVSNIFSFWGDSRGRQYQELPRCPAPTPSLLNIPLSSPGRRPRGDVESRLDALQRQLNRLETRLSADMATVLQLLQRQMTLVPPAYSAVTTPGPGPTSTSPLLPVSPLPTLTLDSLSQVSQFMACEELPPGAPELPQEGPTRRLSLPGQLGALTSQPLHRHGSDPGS

Compound | hERG current change (%, negative = inhibition) at 1uM [%]
Cc1cccc(C)c1NC(=O)c1sccc1SCc1cccc(C(F)(F)F)c1 | 5.2
O=C(Nc1cccc2ccccc12)N1CCOCC1 | 16.3
Cc1sc2nc(SCC(=O)C(C)(C)C)n(Cc3ccco3)c(=O)c2c1C | 19.2
O=C1NC(=S)CN1c1ccccc1 | 13
COc1ccc(NC(C)(C)c2nnnn2-c2c(C)cccc2C)cc1 | 11.3
Cc1ccnc(NC(=O)Nc2cccc(F)c2)n1 | 6.95
COc1cc(/C=C/C(=O)OCC(=O)N2CCOCC2)ccc1OCC#N | 12
Nc1ncnc(Oc2cccc(C(F)(F)F)c2)c1[N+](=O)[O-] | 3.26
CN1CCN(c2nc(-c3cc4ccccc4o3)cs2)CC1 | 4.08
O=S(=O)(Nc1ccon1)c1ccc(Br)s1 | 13.1
CCc1ccc(OCC(=O)NC(NC(=S)Nc2ccccc2)C(Cl)(Cl)Cl)cc1 (stereo not shown) | 17.9
COC(=O)c1ccc(CSc2nnc(CNC(=O)c3ccccc3F)o2)o1 | 4.91
CCn1nnc2cc(C(=O)NCCc3ccccc3F)ccc21 | 3.36
COc1ccc2cnn(CCOc3cc(C)ccc3C(C)C)c(=O)c2c1OC | 10.1
COc1ccccc1CNC(=O)CNCCc1ccc(OC)c(OC)c1.O=C(O)C(=O)O | 10.9
O=C(Nc1cccc2c1CCCC2)c1ccccc1Cl | 12
CN1C(=O)N(CC(=O)Nc2sccc2C(N)=O)C(=O)C12CCCCC2 | -0.811
CC(=O)Nc1ccc(S(=O)(=O)NC2CCSc3ccccc32)cc1 (stereo not shown) | 6.11
Cc1c(C(=O)N2CCN(c3ccccn3)CC2)oc2c(F)cccc12 | 8.04
CC1(C)CC(=O)C(C=NCCN2CCN(C(=S)Nc3ccccc3)CC2)=C(O)C1 | -3.1
O=C(Cc1csc(Nc2nc(=S)[nH]c3ccccc23)n1)NCc1ccccc1Cl | 11.1
CCN(CC)C(=O)OCc1c(-c2ccccc2)ncc2ccccc12 | 10.7
Cn1c(C(C#N)/C(=N\S(=O)(=O)c2cccs2)c2ccccc2)nc2ccccc21 (stereo not shown) | 5.88

Compound | hERG current change (%, negative = inhibition) at 1uM [%]
CSc1nc2ccc(S(=O)(=O)N3CCCC3)cc2s1 | 6.32
O=C(O)Cn1cc(/C=C2/SC(=O)N(CC(=O)N3CCCCCC3)C2=O)c2ccccc21 | 11.6
O=S(=O)(c1ccccc1)N1CCN(Cc2cc3c(cc2Br)OCCO3)CC1 | 10.3
O=C(c1ccccc1/S(=N/S(=O)(=O)c1ccccc1)N1CCOCC1)N1CCOCC1 (stereo not shown) | 8.9
Cl.O=C(CNC1CCCCC1)NCC1(c2ccccc2)CCCC1 | -0.785
COc1cccc(CN2CCN(Cc3ccc4cccc(F)c4n3)CC2CCO)c1 (stereo not shown) | 0.936
COC(=O)c1ccc(CSc2nnc(-c3ccncc3)o2)o1 | 11.5
O=C(CSc1nnc(NC(=O)C2CCC2)s1)Nc1ccc(N2CCOCC2)cc1 | 16.5
O=S(=O)(NN=C1CCCCCCC1)c1ccc(Br)cc1 | 4.67
O=C(CSc1nccn1Cc1ccc(F)cc1)Nc1ccc(F)cc1F | 6.15
CCCCOc1ccc(S(=O)(=O)NNC(=O)c2cc3ccccc3o2)cc1 | 3.62
CCOc1ccccc1NC(=O)c1cccc2c1C(=O)N(CCOC)C2 | -15
O=C(NC1CCS(=O)(=O)C1)c1cc(-c2ccccc2)nc2ccccc12 (stereo not shown) | 14.1
CC1CCN(CCCCOc2ccccc2-c2ccccc2)CC1.O=C(O)C(=O)O | -74.9
CCOC(=O)c1cc2c(C)n(-c3ccc(OCC)cc3)c(C)c2ccc1=O | 0.277
CCOC(=O)c1sc2ccc(S(=O)(=O)N3CCCCC3)cc2c1N | 8.18
Cc1oc2c(CN(C)C)c(O)ccc2c(=O)c1-c1ccc2ccccc2n1 | -4.39
COC(=O)Cc1[nH]c(=O)[nH]c1C(=O)OC | 11.3
CCSCCC(NC1=CC(=O)CC(C)(C)C1)C(=O)O (stereo not shown) | -7.25
Cc1cccc(C(C)C)c1NC(=O)c1cccnc1 | 9.4
CCCn1nnc(NC(=O)COc2ccccc2Cl)n1 | 11.3
CC(C1CC1)N(Cc1ccccc1)C(=O)NC(=O)c1ccccc1 (stereo not shown) | 13.3
Cc1ccc(N(CC(=O)NCc2ccc(F)cc2)C(=O)c2csnn2)c(C)c1 | -12.3
